Measurements from PubChem BioAssay AID1460 (National Center for Advancing Translational Sciences (NCATS), 2008).
Screen size: about 270,000 compounds; about 5,800 (2.1%) were called active. Inconclusive results, whose numbers are uncertain, are shown with a selection of clear calls. Calls follow the shape of the dose curve; as a rule, active = well fitted inhibition curve with a large enough effect; inconclusive = small, poorly fitted or top-dose-only effect; inactive = flat fitted curve, though single readings scatter. A potency beside an inconclusive call is a rough fit, not a confirmed value.

target: Microtubule-associated protein tau (Homo sapiens) (UniProt P10636); test: qHTS for Inhibitors of Tau Fibril Formation, Thioflavin T Binding; conditions: recombinant tau K18 P301L (four-repeat tau fragment), heparin-induced fibrillization, ThT fluorescence; series mostly up to 57.4 µM; activity, negative = inhibition: at the top concentration; also: nearly all actives have a fitted effect of over 55% in size
Chain of UniProt P10636 (P10636 whole entry, looked up, the tested form may be a part): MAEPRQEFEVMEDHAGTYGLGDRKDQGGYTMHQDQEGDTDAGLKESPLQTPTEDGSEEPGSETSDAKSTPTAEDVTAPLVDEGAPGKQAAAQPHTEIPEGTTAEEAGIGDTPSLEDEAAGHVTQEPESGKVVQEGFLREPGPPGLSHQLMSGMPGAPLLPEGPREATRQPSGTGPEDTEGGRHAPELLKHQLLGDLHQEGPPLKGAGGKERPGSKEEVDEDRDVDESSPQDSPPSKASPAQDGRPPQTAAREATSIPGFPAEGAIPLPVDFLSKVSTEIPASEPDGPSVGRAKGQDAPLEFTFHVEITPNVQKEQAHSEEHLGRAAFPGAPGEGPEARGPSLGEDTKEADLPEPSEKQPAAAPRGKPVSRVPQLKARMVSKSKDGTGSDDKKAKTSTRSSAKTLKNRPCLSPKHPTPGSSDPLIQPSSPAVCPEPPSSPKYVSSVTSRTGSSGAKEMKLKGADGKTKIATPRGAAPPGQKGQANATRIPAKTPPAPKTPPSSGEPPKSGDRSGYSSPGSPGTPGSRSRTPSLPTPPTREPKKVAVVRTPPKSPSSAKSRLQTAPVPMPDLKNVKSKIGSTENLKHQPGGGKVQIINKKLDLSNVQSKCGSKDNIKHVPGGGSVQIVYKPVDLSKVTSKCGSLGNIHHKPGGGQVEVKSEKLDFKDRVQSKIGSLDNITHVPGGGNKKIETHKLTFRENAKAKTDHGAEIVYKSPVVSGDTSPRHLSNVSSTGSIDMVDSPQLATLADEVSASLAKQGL
Outline: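 Heparin-induced (20 uM) aggregation of recombinant human K18 P301L tau, 15 uM unlabeled with 0.24 uM labeled, pH 7 acetate buffer, 6 hr at 37 C with compound. Fibrils quantified by 30 uM ThT fluorescence after 1 hr ambient incubation.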
% is scaled to controls: 0 for no effect and ±100 for the full control effect; potency is read from the fitted curve at half-maximal effect; tags tell the direction and shape of the fitted curve.

SMILES	Potency	activity, negative = inhibition
Cc1cc2c(cc1C)CSC(c1c(O)ccc3ccccc13)SC2	inconclusive: 22.4 µM [inhibitor, partial curve]	
Cn1c(SCC(=O)Nc2ccc(NC(=O)c3cccs3)cc2)nnc1-c1ccncc1	inconclusive: 11.2 µM [inhibitor, partial curve]	
CN(C)c1ccc(/C=N/NC(=O)C(O)c2ccc(Br)cc2)cc1 (centres undefined)	inconclusive: 14.1 µM [inhibitor, partial curve, poor fit]	
COc1ccc2c(c1)CCc1c(C(=O)N3CCCCCC3)noc1-2	inconclusive: 31.6 µM [inhibitor, partial curve, poor fit]	
Oc1ccc(C2CNCCc3c2cc(O)c(O)c3Cl)cc1 (centres undefined)	inconclusive: 0.0251 µM [inhibitor, full curve, poor fit]	
COc1ccccc1N1CCN(C(c2ccccc2)c2nnc(-c3ccccc3Cl)o2)CC1 (centres undefined)		inactive: -7.18%
Cc1ccc(-c2cc(C(=O)NCC3CCCO3)no2)cc1 (centres undefined)		inactive: -9.48%
COc1cccc(-c2cc(C(=O)N3CC4(C)CC3CC(C)(C)C4)no2)c1 (centres undefined)		inactive: -23%
CN1/C(=C/C(=O)c2cccs2)Sc2ccccc21	inconclusive: 5.01 µM [inhibitor, partial curve]	
Cc1cccc(N=Nc2c(C)c(C#N)c(O)[nH]c2=O)c1	active: 1.12 µM	
CCOc1ccc(OCC)c(NC(=O)CN(c2ccc(C)cc2)S(=O)(=O)c2c(C)n[nH]c2C)c1		inactive: -14.9%
CCC1CCCCN1C(=O)Cn1c(=O)n(-c2ccccc2C(F)(F)F)c(=O)c2c(C)c(C(=O)N(C)C)sc21 (centres undefined)		inactive: 2.43%
Cc1ccc(-n2c(O)c(/C=N/NC(=O)C3COc4ccccc4O3)c3ccccc3c2=O)cc1 (centres undefined)	inconclusive: 14.1 µM [inhibitor, partial curve]	
O=C(OCc1cccc([N+](=O)[O-])c1)c1ccc2ccccc2n1	inconclusive: 28.2 µM [inhibitor, single point]	
N#CC1=C(N)C(C#N)(C#N)C(c2ccc[nH]2)C2CCCC=C12 (centres undefined)	active: 14.1 µM	
NC(=Nc1ccc(Cl)cc1)c1ccccc1		inactive: 3.3%
CCc1ccc(NC(=O)c2c(Cl)nc(C)c(Cl)c2C)cc1		inactive: -15.3%
Cc1cccc(NC(=O)C2CC(=O)n3cnnc3S2)c1 (centres undefined)	inconclusive: 20 µM [inhibitor, partial curve]	
Cc1ccc(C(=O)O/N=C2\CC3CCC2(C)C3(C)C)cc1 (centres undefined)	inconclusive: 25.1 µM [inhibitor, partial curve, poor fit]	
O=C(Nc1ccccc1[N+](=O)[O-])C1=C(O)CCn2c1nc1ccccc12	inconclusive: 1.78 µM [inhibitor, full curve]	
CCOc1ccc(CCNC(=O)c2ccc3[nH]c(C)c(C)c3c2)cc1	inconclusive: 3.98 µM [inhibitor, partial curve]	
O=C(NC1CCCC1)C(c1ccncc1)N(Cc1cccs1)C(=O)c1csnn1 (centres undefined)	inconclusive: 39.8 µM [inhibitor, single point]	

SMILES	Potency	activity, negative = inhibition
Cc1ccc2scc(N3CCN(c4ccccc4)CC3)c(=O)c2c1	active: 3.98 µM	
O=C(CSCc1nc2cccnc2n1C1CCCCC1)NCc1cccc(Br)c1	inconclusive: 39.8 µM [inhibitor, single point]	
COc1ccc2nc(Cl)c(/C=N/Nc3ccccn3)cc2c1	inconclusive: 14.1 µM [inhibitor, partial curve]	
CC(C)(C)C(=O)NCCc1nc2ccccc2n1CC(=O)c1ccc(Cl)cc1	inconclusive: 0.631 µM [inhibitor, single point]	
CCCCN1C(=O)/C(=C/C=C2\Oc3ccccc3N2CC)SC1=S	inconclusive: 2.24 µM [inhibitor, full curve]	
N/C(=N\c1nc2c(c(=O)[nH]1)CCC2)Nc1cccc(Cl)c1	inconclusive: 11.2 µM [inhibitor, partial curve]	
COc1cccc(C(=O)N=c2sc3cc(S(C)(=O)=O)ccc3n2C)c1	inconclusive: 17.8 µM [inhibitor, partial curve, poor fit]	
CCCC(=O)N1CCN(c2ccc(NC(=O)c3ccc(OCC)c([N+](=O)[O-])c3)cc2)CC1	inconclusive: 0.398 µM [inhibitor, full curve]	
CS(=O)(=O)c1nc(-c2ccco2)cc(C(F)(F)F)n1	inconclusive: 2.82 µM [inhibitor, partial curve]	
COc1ccc(/C=C/C(=O)c2sc(-c3ccc(Cl)cc3)nc2C)cc1	inconclusive: 2.82 µM [inhibitor, full curve, poor fit]	
O=C(CC(c1ccccc1)c1ccccc1)NCCO		inactive: 10.7%
CCCCC(=O)Nc1cc(Cl)ccc1C(=O)O		inactive: 8.96%
CCn1c(Cl)c(C=O)s/c1=N\S(=O)(=O)c1ccccc1	active: 8.91 µM	
Cc1ccc(C)c(Cn2c(=O)n(-c3ccc(CC(=O)NCc4ccco4)cc3)c(=O)c3sccc32)c1		inactive: -0.476%
CC(C)=CCOc1ccc(/C=C/C(=O)c2ccc(OCC=C(C)C)cc2OCC(=O)O)cc1	inconclusive: 7.08 µM [inhibitor, single point]	
Cc1ccc(CN2CCNC(=O)C2CC(=O)N(C)C(C2CC2)C2CC2)o1 (centres undefined)	inconclusive: 39.8 µM [inhibitor, single point]	
COc1ccc(N2CCN(CC(=O)c3c(C)n(C)c4ccc(OC)cc34)CC2)cc1	inconclusive: 15.8 µM [inhibitor, partial curve]	
O=C(c1ccc2c(c1)N(Cc1ccccc1F)C(=O)c1ccccc1S2(=O)=O)N1CCCCCC1	inconclusive: 2.82 µM [inhibitor, single point]	
CN(c1cccc(Cl)c1)S(=O)(=O)c1cccc(C(=O)NC2=NCCS2)c1		inactive: 2.49%
COc1ccc2nc(Nc3nc(C)c(C(C)=O)s3)sc2c1	inconclusive: 1.26 µM [inhibitor, full curve]	
COc1ccc(S(=O)(=O)NCCSCc2ccco2)cc1OC	inconclusive: 22.4 µM [inhibitor, partial curve, poor fit]	
CCCn1cc(S(=O)(=O)c2cccc(Cl)c2)c(=O)c2cc(F)c(N3CCN(CC)CC3)cc21		inactive: 5.81%
